This passage reports binding signal results from article PMC6212790.

Some of the results follow. At the low end of the ranking the order means little.

In this assay the target is T1, GST-Rok-C97-191 (UniProt O34857).
T1 sequence: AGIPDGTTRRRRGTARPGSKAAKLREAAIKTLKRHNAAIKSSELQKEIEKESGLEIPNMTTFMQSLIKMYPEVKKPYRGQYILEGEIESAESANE
Kind of assay: protein binding microarray.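 Note: rank score from −0.5 (least bound) to 0.5 (best bound).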 Particulars: Rok is a gene silencer of Bacillus subtilis; high values mean tight binding; most listed sequences are background and not binding sites; double strand, one strand shown.
Sequence GACCCCAA yielded a binding signal of -0.283 E-score.

Take CTGCAGAA: the binding signal was -0.138 E-score.

Sequence ACGGCACA returned a binding signal of 0.076 E-score.

ACTAATCC registered a binding signal of 0.0831 E-score.

Sequence CACCCTCA displayed a binding signal of -0.127 E-score.

As to CGACACAA, the binding signal is -0.127 E-score.

Turning to AATAAATC, the binding signal was determined as 0.137 E-score.

AAAAGTCG gave a binding signal of -0.0455 E-score.

The sequence CTCACTTA yielded a binding signal of -0.0686 E-score.

ATTAAGGC displayed a binding signal of -0.153 E-score.

GTGAAGAA showed a binding signal of 0.0267 E-score.

In the case of TTCGAGAA, the binding signal stood at 0.0724 E-score.

CATAAAGA returned a binding signal of -0.0708 E-score.

AGGATATA displayed a binding signal of 0.156 E-score.

In turn, GATGAAGC yielded a binding signal of 0.0229 E-score.

In turn, GCCATAAC displayed a binding signal of -0.235 E-score.

As to AAGGAATG, the binding signal was -0.0341 E-score.

The sequence CTCGCATA gave a binding signal of 0.00224 E-score.

For CATGAAGG, the binding signal is -0.11 E-score.

CTAGCCAG showed a binding signal of -0.131 E-score.

CCGCTGGC: the binding signal is -0.2 E-score.

With ACGCAAAC, the binding signal turned out to be 0.103 E-score.

In the case of ATTGTTTA, the binding signal amounted to 0.0735 E-score.

Turning to AGCTACGA, the binding signal came out at 0.191 E-score.

As for AACCGGTG, the binding signal is -0.243 E-score.

In turn, ATCCCCTC showed a binding signal of -0.148 E-score.

GAACCTTC: the binding signal is -0.173 E-score.

The sequence AGCTAGTG showed a binding signal of 0.253 E-score.

Sequence CCAGGCCA registered a binding signal of -0.168 E-score.

For the sequence ACATCGAT, the binding signal was 0.215 E-score.

AATTGGTA displayed a binding signal of 0.331 E-score.

CGCCGACG: the binding signal is -0.0857 E-score.

On to CTTTGCTA, for which the binding signal stood at 0.223 E-score.

On to AAGGCTGC, for which the binding signal was -0.111 E-score.

Turning to AATTACGT, the binding signal was 0.273 E-score.

The sequence CGGTTGAC had a binding signal of -0.17 E-score.

In the case of GGTCTGCA, the binding signal is -0.0588 E-score.

As for AATCCGCC, the binding signal is -0.126 E-score.

CAGTTTCC: the binding signal is -0.0842 E-score.

CAACCTGG returned a binding signal of -0.182 E-score.

The sequence GGGGGGAC came in with a binding signal of -0.218 E-score.

Sequence CAATAGTG came in with a binding signal of 0.236 E-score.

In turn, ACTGAACA came in with a binding signal of 0.141 E-score.

In turn, AGTTATCA came in with a binding signal of 0.253 E-score.

Turning to GACTAATA, the binding signal came to 0.29 E-score.

Take ACCATGCC: the binding signal is -0.0186 E-score.

Sequence CTACTGTA displayed a binding signal of 0.384 E-score.

ATACTTCG showed a binding signal of 0.0591 E-score.

Take AAACATCC: the binding signal was 0.1 E-score.

As to AATAGCCG, the binding signal came to 0.0427 E-score.

Consider ACCTCCTA, for which the binding signal amounted to 0.124 E-score.

As to CCGGGACA, the binding signal was -0.169 E-score.

CGAGGTAC: the binding signal was -0.0906 E-score.

Consider CCACAACC, for which the binding signal is -0.186 E-score.

CCGCTATA registered a binding signal of 0.207 E-score.

ACCGTAGA had a binding signal of 0.0796 E-score.

Regarding GGTTGCTA, the binding signal is 0.16 E-score.

In turn, ATGAGTGA gave a binding signal of -0.0491 E-score.

Take ATGTCGTA: the binding signal was 0.19 E-score.

CGCGTATC showed a binding signal of -0.00618 E-score.

On to ACTACTGC, for which the binding signal worked out at 0.113 E-score.

As to CTGTGGCC, the binding signal is -0.18 E-score.

Sequence CGGAGTAC registered a binding signal of 0.0635 E-score.

AGGTACCT yielded a binding signal of 0.322 E-score.

Take CATGCCTA: the binding signal is -0.0308 E-score.

GAGTGTCC gave a binding signal of -0.137 E-score.

AACTGACC gave a binding signal of 0.128 E-score.

Take CGATCGAA: the binding signal was 0.239 E-score.

AGCTTGAT showed a binding signal of -0.0768 E-score.

Consider GTGAGCAA, for which the binding signal was -0.0796 E-score.

Consider CTATCCGC, for which the binding signal was determined as 0.0493 E-score.

AGCCAGTC displayed a binding signal of -0.118 E-score.

In the case of AAAAAAAT, the binding signal turned out to be 0.195 E-score.

With CTGGGATA, the binding signal was found to be 0.078 E-score.

With CGCCGAAG, the binding signal is -0.269 E-score.

With TATGTCGA, the binding signal was determined as 0.226 E-score.

Take AGCCTGTA: the binding signal is -0.157 E-score.

The sequence TGGAGAAA yielded a binding signal of 0.104 E-score.

For CCATATGC, the binding signal is -0.0256 E-score.

As to ACCGTAAT, the binding signal turned out to be 0.157 E-score.

As for CTTGGAAC, the binding signal was -0.103 E-score.

As for ATTGCGGC, the binding signal is -0.0591 E-score.

CCGTTACG showed a binding signal of -0.106 E-score.

The sequence GCGACGCA came in with a binding signal of 0.0168 E-score.

On to AATTTCGT, for which the binding signal turned out to be 0.145 E-score.

As for AGTATATC, the binding signal came to 0.261 E-score.

In the case of GAGAAACA, the binding signal is -0.00871 E-score.

On to CAAACTTC, for which the binding signal stood at 0.0153 E-score.

Turning to TCGGAAAA, the binding signal worked out at 0.0434 E-score.

As for TCGTCCCA, the binding signal was -0.222 E-score.

AATGGGAC returned a binding signal of -0.164 E-score.

Consider AAGGAATT, for which the binding signal came to 0.0952 E-score.

In turn, GACTTTAA had a binding signal of -0.212 E-score.

On to ATGCCCAA, for which the binding signal was -0.153 E-score.

Turning to ATGACGTA, the binding signal was -0.0485 E-score.

GTCAATAA had a binding signal of 0.0619 E-score.

Take CTCCAATA: the binding signal is -0.143 E-score.

Take AATATCGC: the binding signal was determined as 0.159 E-score.

Sequence AACGACAC had a binding signal of 0.105 E-score.

Take CACGCGAA: the binding signal was -0.17 E-score.

For the sequence AGTCCATC, the binding signal is -0.159 E-score.

In turn, ACTAAGAG showed a binding signal of 0.171 E-score.

For AGTCACTC, the binding signal was -0.0511 E-score.

Turning to GACGACCA, the binding signal was -0.131 E-score.

AGGTTTCG: the binding signal was -0.253 E-score.

With GGTGAAGA, the binding signal was -0.0416 E-score.

Turning to AGCCCCCG, the binding signal was -0.305 E-score.

TAGCGTAA: the binding signal is 0.0752 E-score.

Sequence GTCCTCCA returned a binding signal of -0.278 E-score.
